# Measurements as given in PMC4336329 (PLoS ONE, 2015).
# Hit rate of the full screen: of about 310,000 compounds, about 2,200 (0.71%) showed an effect of 50% or more. Effects have a minus sign here. Some of the results follow.
# Target: human ether-à-go-go-related gene (hERG) potassium channel (human, UniProt Q12809)
# Assay: primary screen, population patch clamp on CHO cells stably expressing hERG
# Sequence of human ether-à-go-go-related gene (hERG) potassium channel (Q12809 whole entry, looked up): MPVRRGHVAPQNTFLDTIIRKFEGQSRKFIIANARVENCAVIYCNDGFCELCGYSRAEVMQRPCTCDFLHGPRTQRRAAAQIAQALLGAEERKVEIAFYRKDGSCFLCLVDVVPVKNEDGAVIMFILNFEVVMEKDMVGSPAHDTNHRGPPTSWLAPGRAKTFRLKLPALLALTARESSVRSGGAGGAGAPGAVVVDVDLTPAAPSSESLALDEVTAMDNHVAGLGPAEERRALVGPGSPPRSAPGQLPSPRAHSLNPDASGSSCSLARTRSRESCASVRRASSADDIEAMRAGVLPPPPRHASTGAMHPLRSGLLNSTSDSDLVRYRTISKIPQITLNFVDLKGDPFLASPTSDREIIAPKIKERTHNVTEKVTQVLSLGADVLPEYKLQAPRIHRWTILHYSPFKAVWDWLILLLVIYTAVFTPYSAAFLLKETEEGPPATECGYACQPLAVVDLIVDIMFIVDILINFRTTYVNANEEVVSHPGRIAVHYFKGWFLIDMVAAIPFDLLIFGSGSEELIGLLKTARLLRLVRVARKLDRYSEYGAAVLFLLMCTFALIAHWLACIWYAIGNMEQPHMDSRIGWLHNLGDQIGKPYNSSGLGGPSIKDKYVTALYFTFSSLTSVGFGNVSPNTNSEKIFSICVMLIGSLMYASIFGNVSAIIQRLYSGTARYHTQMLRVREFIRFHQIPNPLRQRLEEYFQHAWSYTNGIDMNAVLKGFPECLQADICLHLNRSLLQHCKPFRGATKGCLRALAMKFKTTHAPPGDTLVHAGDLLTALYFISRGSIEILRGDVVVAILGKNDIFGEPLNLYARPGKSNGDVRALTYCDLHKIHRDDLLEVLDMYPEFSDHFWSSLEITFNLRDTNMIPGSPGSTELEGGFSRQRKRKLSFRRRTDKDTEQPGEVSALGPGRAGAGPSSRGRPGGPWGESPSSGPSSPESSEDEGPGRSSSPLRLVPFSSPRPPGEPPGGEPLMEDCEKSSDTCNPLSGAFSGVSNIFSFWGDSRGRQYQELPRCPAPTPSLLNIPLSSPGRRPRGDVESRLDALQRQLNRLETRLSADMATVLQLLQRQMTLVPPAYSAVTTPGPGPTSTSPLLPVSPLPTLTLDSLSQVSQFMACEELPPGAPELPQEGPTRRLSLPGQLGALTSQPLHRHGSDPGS
row,Structure (SMILES),"hERG current change (%, negative = inhibition) at 1uM [%]"
1,OCCOc1ccc(C2=NCCO2)cc1,-25.3
2,Cc1nc2c3ccccc3n(CC#N)c(=O)n2n1,8.95
3,CCOC(=O)C(CSCC(=O)c1ccc(Cl)cc1Cl)NC(=O)OC(C)(C)C (stereo not shown),1.49
4,COc1ccc(-n2c(SCc3nnc(-c4ccccc4)o3)nnc2-c2ccccc2)cc1,5.1
5,Cc1ccc(NC(=O)Cn2c(O)c(N=NC(=O)c3ccncc3)c3ccccc32)cc1,12.7
6,OCC1(Cc2ccccc2)CCN(Cc2ccccn2)CC1,4.6
7,Cc1ccnc(NC(=O)c2cc(-n3cnnc3)ccc2Cl)c1,14.2
8,CN(C)C(=O)Cn1c(SCC(=O)Nc2ccc3c(c2)OCO3)nc2ccccc21,14
9,Cc1cccc(NC2=C(NC(=O)c3ccccc3)C(=O)c3ccccc3C2=O)c1,5.94
10,COc1cccc([C@@H]2Oc3ccc(OC)cc3C(=O)[C@H]2O)c1,17.4
11,CC1=CC(=O)C(C(C)C)=C/C1=N/OC(=O)c1cccc([N+](=O)[O-])c1,7.17
12,Cc1oc(-c2cccc(F)c2)nc1CN1CCCCC1CCn1cccn1 (stereo not shown),-40.1
13,CC1CCCC(NC(=O)c2nn(C)c3c2CS(=O)(=O)c2ccccc2-3)C1C (stereo not shown),8.09
14,On1c(-c2ccccc2)nc2ccccc21,16.2
15,O=C1/C(=C\c2ccco2)SC(=S)N1C1CCCCC1,12.8
16,CC(C)NC(=O)/C(C#N)=C\c1ccc(N(C)C)c(Br)c1,12.7
17,COc1ccc(CN2CN(S(=O)(=O)c3cccs3)c3nc4ccccc4nc32)cc1,9.17
18,Cc1c(NC(=O)COC(=O)C23CC4CC(CC(Br)(C4)C2)C3)c(=O)n(-c2ccccc2)n1C,11.3
19,O=C(c1ccc(Cl)cc1Cl)c1ncc(C(F)(F)F)cc1Cl,3.15
20,CCN(C(=O)COC(=O)c1ccc(F)c(S(=O)(=O)N2CCOCC2)c1)C1CCS(=O)(=O)C1 (stereo not shown),-6.02
21,Cc1cccc(-c2n[nH]c(=S)n2/N=C/c2ccc(C)o2)c1,10.5
22,O=C(O)C1C(c2ccccc2)C(C(=O)N2CCOCC2)C1c1ccccc1 (stereo not shown),-8.5

row,Structure (SMILES),"hERG current change (%, negative = inhibition) at 1uM [%]"
1,O=C(COc1ccccc1Cl)Nc1ccccc1C(=O)Nc1cccc(C(=O)O)c1,19.2
2,O=C(OCc1cccnc1)C1=Cc2ccccc2OC1,-73
3,CNc1ccc(S(=O)(=O)NC)cc1[N+](=O)[O-],14.8
4,Cc1ccc2nc(NC(=O)c3ccccn3)sc2c1,3.26
5,CC(C)CNC(=O)NC(=O)COC(=O)c1cccc(NS(=O)(=O)c2ccc(F)c(F)c2)c1,-5.6
6,O=C(c1ccc(Cl)cc1)c1c[nH]c(C(=O)C(Cl)(Cl)Cl)c1,21.7
7,COc1ccc(CNC(=O)Cn2ccc(NC(=O)OCc3ccccc3)nc2=O)cc1,21.5
8,CC(C)(C)c1cnnn1-c1ccc([N+](=O)[O-])cc1,8.67
9,CC(C)NC(=O)C(=O)NNC(=O)CCc1ccccc1,6.98
10,CC(NC(=O)c1ccc(OC2CCN(Cc3ccccn3)CC2)cc1)c1nccs1 (stereo not shown),8.82
11,O=C(CN(C(=O)CCC(=O)Nc1nccs1)c1ccccc1F)NCc1ccc2c(c1)OCO2,11.6
12,COc1cc(/C=C/C(=O)O)cc(S(=O)(=O)NC2CC2)c1OC,6.48
13,COC(=O)CCCC(=O)NC1CCCc2c1cnn2-c1ccc(F)cc1F (stereo not shown),15
14,O=C(CSc1nncn1-c1ccccc1)N1CCCC1,10.5
15,Cc1ccccc1OCC(O)CN1C(=O)c2ccccc2C1=O (stereo not shown),13.3
16,O=C1CCC(C(=O)Nc2cccc3ccccc23)N1 (stereo not shown),11.1
17,Cc1nc(-c2ccc(F)cc2)c(CC(=O)Nc2ccc(C)c(S(=O)(=O)N3CCOCC3)c2)s1,5.55
18,COc1ccc(C(=O)NCC2(c3ccc(OC)c(OC)c3)CCCC2)c(OC)c1,10
19,CC(=O)N(c1ccc(Cl)cc1)c1cn(C(C)=O)c2ccccc12,-1.35
20,O=C(c1ccc(CS(=O)(=O)c2ccc(Br)cc2)o1)N1CCN(c2ncccn2)CC1,-2.14
21,N#CC1=C(N)Oc2n[nH]c(-c3ccc(F)cc3)c2C1c1ccncc1 (stereo not shown),8.91
22,COc1ccc(N2CCN(C(=O)c3cc(C)on3)CC2)cc1,11.2

row,Structure (SMILES),"hERG current change (%, negative = inhibition) at 1uM [%]"
1,O=C1CCN(S(=O)(=O)c2ccccc2)CCN1CCOCc1cccc(F)c1,9.28
2,CCOC(=O)CC(=O)CSc1nnc2sc3ccccc3n12,13.8
3,N#C/C(=C(/O)COC(=O)COc1cccc(Br)c1)c1nc2ccccc2[nH]1,9.85
4,CCOC(=O)c1c(CCl)nc2ccccc2c1-c1ccccc1,18.5
5,Cc1cc(C)n(-c2cccc(C(=O)O)c2)n1,12.5
6,O=C(O)COc1ccccc1/C=N/NC(=O)CN1CCN(Cc2ccccc2Cl)CC1,10.4
7,O=C1C(c2cc(=O)c3ccccc3[nH]2)=C(O)c2ccccc21,9.75
8,COc1cc(C(=O)NCc2nc(C)cs2)ccc1OC1CCN(C(C)=O)CC1,9.19
9,CCN1CCN(C(=O)CS(=O)Cc2nc(-c3cccc(C)c3)oc2C)CC1 (stereo not shown),7.3
10,CC1CCC(NC(=O)C(C)N2C(=O)C3CCCCC3C2=O)CC1 (stereo not shown),15.2
11,Cc1cccc(Cn2cnc3c(nnn3Cc3ccccc3F)c2=O)c1,-25.4
12,O=C(CN1CCN(Cc2ccccc2F)C1=O)NCCc1ccc(Cl)cc1,-31.4
13,CC(C)N(Cc1ccccc1)C(=O)CN1C(=O)c2ccccc2C1=O,12
14,CC(Sc1nnc(COc2ccc([N+](=O)[O-])cc2)n1C)C(=O)O (stereo not shown),5.88
15,O=C(CSc1nc2ccccc2o1)Nc1ccc(N2CCOCC2)cc1,-6.03
16,Cc1cc(S(=O)(=O)N2CCN(CC(=O)NCCc3cccs3)CC2)ccc1Br,6.46
17,Cc1cccc(-c2nc(Nc3ccc(O)cc3)c3ccccc3n2)c1,7.61
18,NC(=S)N/N=C/c1cccc(Br)c1,8.52
19,CCc1cc2c(-c3ccccc3)cc(=O)oc2cc1OC(C)C(=O)NCC1CCC(C(=O)O)CC1 (stereo not shown),17.8
20,CCOC(=O)c1ccc2ncc(C(=O)OCC)c(NCc3ccco3)c2c1,1.82
21,Cc1cc(C(=O)NCCN2CCOCC2)ccc1[N+](=O)[O-],12.3
22,C=CCn1c(O)c(/C(C)=N/NC(=S)Nc2ccccc2)c(=O)[nH]c1=O,13.9

row,Structure (SMILES),"hERG current change (%, negative = inhibition) at 1uM [%]"
1,Cc1ccc(S(=O)(=O)N(C)c2ccc(C(=O)O)cc2)cc1,6.35
2,O=C(CSc1ccc(-c2ccco2)nn1)NCc1ccccc1Cl,-8.19
3,CCOC(=O)CNc1c(N2CCN(c3ccccn3)CC2)c(=O)c1=O,14.6
4,O=C1CC(N2CCN(c3ccccn3)CC2)C(=O)N1c1ccc(F)cc1 (stereo not shown),11.9
5,O=C(Cn1cccc1)N1CCN(C(c2ccccc2)c2ccccc2)CC1,-2.27
6,O=C1N=C(N2CCN(Cc3ccccc3)CC2)S/C1=C/c1cccs1,7.28
7,CCc1ccc(CNCCc2c[nH]c3ccccc23)cc1.O=C(O)C(=O)O,-9.05
8,O=C(O)CSc1nnc(CNc2ccccc2Cl)n1-c1ccccc1,-17.9
9,CC(C)[C@H](NC(=O)c1ccccc1Cl)C(=O)Nc1nc(-c2ccccn2)cs1,5.38
10,COc1ccc(CCNC(=O)C2CC(=O)N(c3ccccc3)C2)cc1OC (stereo not shown),-0.694
11,O=C(N/C(=C\c1cccc([N+](=O)[O-])c1)C(=O)N1CCOCC1)c1ccc([N+](=O)[O-])cc1,-2.31
12,CCn1c(C)c(C(C)=O)c(N2CCN(c3ccccc3)CC2)nc1=S,-2.66
13,Cc1ccc(S(=O)(=O)Cc2ccc(C(=O)N3CCN(Cc4ccccc4)CC3)o2)cc1,2.95
14,COc1ccc(Cl)cc1NC(=O)C1CC(=O)N(C2CCCCC2)C1 (stereo not shown),3.63
15,COc1ccc2c(c1)c(C(=O)N/N=C/c1ccc(Br)cc1)c(C)n2C,5.63
16,O=C(C1CCCN(Cc2ccccc2Cl)C1)N1CCCCC1.O=C(O)C(=O)O (stereo not shown),2.88
17,O=C1c2ccc(Cl)cc2S(=O)(=O)c2cccc(C(=O)N3CCC(Cc4ccccc4)CC3)c21,16.1
18,Cc1noc(/C=C/N(C)C)c1S(=O)(=O)N1CCN(c2ccccc2)CC1,5.41
19,Cc1ccc(OCC(=O)N/N=C/c2ccc([N+](=O)[O-])o2)cc1,-0.386
20,CCCC(=O)Nc1cc(C)c(NC(=O)c2ccccn2)cn1,12.5
21,CCOc1ccc(S(=O)(=O)NCc2ccncc2)cc1NC(=O)c1ccccc1,-16.5
22,CN(C)S(=O)(=O)c1cccc(NC(=O)CN2C(=O)NC(CCc3ccccc3)C2=O)c1 (stereo not shown),7.11
